Screen size: about 310,000 compounds; about 2,200 (0.71%) showed an effect of 50% or more. Effects have a minus sign here. This is one part of the list.
What follows are compounds tested against human ether-à-go-go-related gene (hERG) potassium channel (human, UniProt Q12809) (assay: primary screen, population patch clamp on CHO cells stably expressing hERG).
human ether-à-go-go-related gene (hERG) potassium channel, sequence (Q12809 whole entry, looked up): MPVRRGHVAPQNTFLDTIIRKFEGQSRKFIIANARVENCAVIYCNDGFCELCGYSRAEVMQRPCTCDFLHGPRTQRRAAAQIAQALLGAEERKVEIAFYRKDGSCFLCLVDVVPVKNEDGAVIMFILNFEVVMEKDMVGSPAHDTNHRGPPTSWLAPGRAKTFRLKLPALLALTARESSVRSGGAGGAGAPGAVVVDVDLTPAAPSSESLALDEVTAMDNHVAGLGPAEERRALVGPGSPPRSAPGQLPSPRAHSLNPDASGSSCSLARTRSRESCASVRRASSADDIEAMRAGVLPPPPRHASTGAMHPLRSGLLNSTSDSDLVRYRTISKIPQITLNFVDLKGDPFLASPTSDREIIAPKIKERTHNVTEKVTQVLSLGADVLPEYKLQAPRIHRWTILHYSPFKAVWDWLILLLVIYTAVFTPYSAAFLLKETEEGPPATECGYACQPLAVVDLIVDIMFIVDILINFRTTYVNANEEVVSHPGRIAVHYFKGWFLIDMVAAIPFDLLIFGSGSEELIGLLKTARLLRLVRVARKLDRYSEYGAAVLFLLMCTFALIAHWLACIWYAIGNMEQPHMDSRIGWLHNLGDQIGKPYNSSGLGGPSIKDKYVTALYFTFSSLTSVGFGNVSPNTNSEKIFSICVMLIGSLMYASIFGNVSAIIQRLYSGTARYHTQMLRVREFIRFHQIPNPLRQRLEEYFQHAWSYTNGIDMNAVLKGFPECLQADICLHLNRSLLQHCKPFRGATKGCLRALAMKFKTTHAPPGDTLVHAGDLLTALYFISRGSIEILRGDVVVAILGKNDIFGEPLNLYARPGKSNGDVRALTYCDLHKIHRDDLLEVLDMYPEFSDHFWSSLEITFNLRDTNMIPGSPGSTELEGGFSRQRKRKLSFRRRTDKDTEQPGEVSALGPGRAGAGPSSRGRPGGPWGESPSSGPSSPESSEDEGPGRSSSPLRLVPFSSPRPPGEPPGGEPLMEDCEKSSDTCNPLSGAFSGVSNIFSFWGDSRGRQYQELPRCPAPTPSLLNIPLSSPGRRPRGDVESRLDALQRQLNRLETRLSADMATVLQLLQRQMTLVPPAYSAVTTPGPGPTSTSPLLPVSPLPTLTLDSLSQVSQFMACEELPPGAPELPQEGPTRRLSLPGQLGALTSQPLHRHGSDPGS

Row | SMILES | hERG current change (%, negative = inhibition) at 1uM [%]
1 | COc1ccc(CCNC(=O)CSc2nc3[nH]ncc3c(=O)n2-c2ccccc2OC)cc1OC | 21.9
2 | C/C(=N\NC(=O)c1nnn(-c2nonc2N)c1CN1CCOCC1)c1ccc(CC(C)C)cc1 | 21
3 | O=C(COC(=O)Cc1c[nH]c2ccccc12)NC1CCCCC1 | 17.8
4 | COc1ccccc1CCNC(=O)c1ccc2nc[nH]c2c1 | 10.1
5 | Cc1nn(-c2ccccc2)c(C)c1C(=O)OCC(=O)NC(=O)NC1CCCC1 | 8.88
6 | CCOc1cc(C(=O)NCCC(=O)N2CCC3(CC2)NCCc2[nH]cnc23)cc(OCC)c1OCC | 31.7
7 | O=C(Nc1nnc(-c2ccc(Cl)cc2)o1)c1nc2ccccc2s1 | 9.84
8 | O=[N+]([O-])c1ccc(OCc2n[nH]c(=S)n2-c2ccccc2)cc1 | 5.05
9 | COc1cc2[nH]c(=S)n(C3CC3)c(=O)c2cc1OC | 25.7
10 | COc1ccc(-c2nn(-c3ccccc3)cc2/C=N/NC(=S)NC(C)C)cc1OC | 10.5
11 | Cc1cccc(N2CCN(C(=O)C(Cc3ccccc3)NC(N)=O)CC2)c1C (stereo not drawn) | 4.85
12 | Cc1cc(=O)[nH]c(SCC(=O)NC(C)C2CC3CCC2C3)c1C#N (stereo not drawn) | 13
13 | CCN(CC)c1ccc(C(=O)OCC(=O)Nc2sccc2C#N)cc1 | 11.7
14 | CCOc1ccc(CCNC(=O)c2cc(-c3ccccc3)c(N3CCOCC3)s2)cc1OCC | 11.2
15 | CC(=O)N1C(=O)c2cccc3cccc(c23)C(=O)N1C(C)=O | 4.19
16 | CCOC(=O)c1c(N)nn(C(C)=O)c1-c1ccccc1 | 14.5
17 | Cn1cnc2c1c(=O)n(Cc1ccccc1)c(=O)n2C | 0.97
18 | Cc1ccc(OCCSc2nnc(C)c(=O)n2N)cc1 | 13.8
19 | NC(=O)c1ccc(NC(=O)COC(=O)c2ccc3c(c2)OCO3)cc1 | 4.12
20 | O=C(COC(=O)CNC(=O)C1CCCCC1)Nc1ccc(Br)cc1Br | 1.93
21 | O=C(Cn1ncc2c1-c1ccccc1OC2)Nc1cccc(Cl)c1 | 9.86
22 | O=C(c1ccc(C(F)(F)F)n(Cc2ccc(Cl)cc2)c1=O)N1CCOCC1 | 6.82
23 | Cc1ccc(-c2cc(-c3ccc(F)cc3)n[nH]2)c(O)c1 | 8.35

Row | SMILES | hERG current change (%, negative = inhibition) at 1uM [%]
24 | Cc1ccc(S(=O)(=O)N(C)C)cc1NC(=O)C(C)OC(=O)c1ccc2ccccc2n1 (stereo not drawn) | 4.36
25 | CCOc1ccc(NC(=O)CCSc2ccc(C)cc2)cc1 | 10.5
26 | O=C(COc1ccc(N2CC(C(=O)O)CC2=O)cc1)Nc1cccc(C(F)(F)F)c1 (stereo not drawn) | 23.8
27 | O=c1c2[nH]c3cccc(Cl)c3c2ncn1Cc1ccco1 | 11.7
28 | CC(=O)Nc1ccc(/C(C)=N/NC(=O)c2ccc(COc3ccccc3Cl)o2)cc1 | 5.1
29 | COC(=O)C1=[N+]([O-])OC(C(=O)OC)C1c1c[nH]c2ccccc12 (stereo not drawn) | -6.78
30 | O=C(N/N=C1\CCc2ccccc21)c1ccccc1O | 8.05
31 | NC(=O)CC[C@H](NC(=O)OCc1ccccc1)C(=O)OCc1ccc(Cl)cc1 | 11.2
32 | CCC(C)NC(=O)c1c(C)cc(=O)oc1C (stereo not drawn) | 12.7
33 | O=C(O)[C@H](Cc1c[nH]c2ccccc12)Nc1ncccc1[N+](=O)[O-] | 3.59
34 | CC(C)Cc1[nH]c(=O)c(C#N)c2c1CCC2 | 9.78
35 | COC(=O)c1ccc([C@H]2C=C(C(=O)O)O[C@@H](OCc3ccc(CO)cc3)C2)cc1 | 19.8
36 | Cc1nccn1C[C@@H]1CCc2c(c3ccccc3n2C)C1=O | -0.139
37 | CC(C)CC(=O)NC(c1ccccc1Cl)c1c(O)ccc2ccccc12 (stereo not drawn) | -0.335
38 | Cc1cc(-n2nc(C)cc2C)n2nc(C)c(-c3ccccc3)c2n1 | 10.9
39 | CCCOc1ccc(S(=O)(=O)N2CCOCC2)cc1[N+](=O)[O-] | -29.4
40 | CCC(C)(C)C1CCC(=NNc2nc3ccccc3[nH]2)CC1 (stereo not drawn) | 12.5
41 | CCOc1ccc(C(=O)c2nc3c(n2O)CCCCC3)cc1 | 15
42 | COc1ccccc1N/C(N)=N/c1nc(CSc2ccc(C)cc2)cc(=O)[nH]1 | 13.6
43 | O=C(COC(=O)CCc1ccc(S(=O)(=O)N2CCOCC2)cc1)NC1CCCC1 | 3.56
44 | O=C(O)CCS(=O)(=O)c1cccc2cccnc12 | 13.8
45 | CCNC(=O)c1ccc(-n2nc(C)cc2-c2ccccc2)cc1 | 5.17
46 | CCOc1cccc(C(=O)Nc2cccc(-c3nnc(-c4ccc(C)cc4)o3)c2)c1 | 12.9

Row | SMILES | hERG current change (%, negative = inhibition) at 1uM [%]
47 | CCOCCc1nnc(NC(=O)CN2C(=O)c3ccccc3C2=O)s1 | -8.7
48 | CCCC(=O)N=c1sc2cccc(F)c2n1C | 3.66
49 | Cc1ccc(SCCNC(=O)C(C)C)cc1 | 12.6
50 | CC(Sc1nnc(N)s1)C(=O)NC1CCCCC1C (stereo not drawn) | -2.98
51 | O=C(Nc1cccc(-c2ccc(N3CCCCC3)nn2)c1)C(F)(F)F | 6.42
52 | Cc1ccc(N(C(C)C(=O)N2CCN(Cc3ccccc3)CC2)S(C)(=O)=O)cc1 (stereo not drawn) | 5.58
53 | CCOc1ccc(NC(=O)CCN2CCN(S(=O)(=O)c3ccc(F)cc3)CC2)cc1 | 11.5
54 | COC(=O)C1=C(Nc2cc(Cl)cc(Cl)c2)CSC1 | 12.5
55 | Cc1ccccc1NC(=O)N1c2ccccc2CC1C (stereo not drawn) | 12.5
56 | CC(=O)c1cn(Cc2ccccc2C#N)c2ccccc12 | 28.3
57 | Cc1ccc(/C=N/n2nnnc2N)o1 | -1.91
58 | Cc1nn(C)cc1C(C)NC(=O)c1cc(COc2ccc(F)c(F)c2)on1 (stereo not drawn) | 6.26
59 | CCC(Sc1nc(N)cc(N)n1)C(=O)O (stereo not drawn) | 8.78
60 | CC(=O)c1cccc(NC(=O)Nc2ccc3c(c2)CCC3)c1 | 9.65
61 | COc1ccc(/C=C/C(=O)OCC(=O)Nc2cc3oc4ccccc4c3cc2OC)cc1 | 15.1
62 | COC(=O)CCC(=O)OC1(C)C(=O)C2=CN(Cc3ccc4c(c3)OCO4)C(c3ccc(OC)cc3)=CC2=C(Br)C1=O (stereo not drawn) | 15.8
63 | COc1ccc(-c2cccc(C(=O)Nc3ccc(OC)c(OC)c3)c2)cc1 | 5.59
64 | COC(=O)CSCC(=O)Nc1nnc(-c2ccccc2C)s1 | 16.2
65 | CC(C)C[C@H]1CN=C(Nc2ccccc2)N1CCC(C)c1ccccc1 (stereo partly drawn) | -8.04
66 | COc1ccc(/C=C/C(=O)OCCNC(=O)c2ccncc2)cc1OC | 17.4
67 | Cc1nc2ccc(NS(=O)(=O)c3c(F)cc(F)cc3Br)cc2s1 | 9.33
68 | CC(C)CN(C(=O)CN1CCN(c2ccccc2F)CC1)c1c(N)n(CC(C)C)c(=O)[nH]c1=O | 18.6
69 | O=C(O)C1C(C(=O)O)C2(Cl)C(Cl)=C(Cl)C1(Cl)C2(Cl)Cl (stereo not drawn) | 10.7

Row | SMILES | hERG current change (%, negative = inhibition) at 1uM [%]
70 | CCN(CC(=O)NCc1ccc(F)cc1)C(=O)COc1ccc2ccccc2c1 | -9.85
71 | COc1ccc(S(=O)(=O)NC(C)C(=O)Nc2ccccc2C(F)(F)F)cc1 (stereo not drawn) | 2.15
72 | O=C(Cc1ccccc1)c1ccccc1C(=O)N1CCCCC1 | 15.2
73 | COc1ccc2[nH]c(C(=O)Nc3ccc(C)c(F)c3)cc2c1 | 13.5
74 | COC(=O)c1cccc(NC(=O)CSc2nncn2-c2ccccn2)c1 | -0.0535
75 | ClC(Cl)=C(c1ccc(Cl)cc1)c1ccc(Cl)cc1 | 1.52
76 | COc1ccc(Cl)cc1NC(=S)Nc1ccc(Cl)cn1 | 3.78
77 | O=C(O)CC(c1cccc(Cl)c1)n1cccc1 (stereo not drawn) | 7.7
78 | Cc1ccc(-n2c(O)c(C=NCc3ccco3)c(=O)[nH]c2=S)cc1C | 15.1
79 | C=CCN1C(=O)C(Cc2ccc(OC)cc2)S/C1=N/N=C/c1ccco1 (stereo not drawn) | -8.04
80 | COCCNC(=S)Nc1cccc2cnccc12 | 9.71
81 | COc1cc(CNCc2ccncc2)cc(Br)c1OCc1ccccc1F.Cl | -24.2
82 | CCOC(=O)N1CCN(C(=O)NC2CCCCC2)CC1 | 15.5
83 | C[C@]12CCC3C(CCC4=C/C(=N/OCC(=O)NC(CCC(N)=O)C(=O)O)CC[C@@]43C)C1CCC2O (stereo partly drawn) | 2.61
84 | COc1ccccc1NC(=O)N1CCCC1C(=O)NCc1ccccc1F (stereo not drawn) | 15.3
85 | N#CC1=C(N)N(c2ncn[nH]2)C2=C(C(=O)CCC2)C1c1ccc(F)cc1 (stereo not drawn) | 11.4
86 | COc1ccc(OC)c(S(=O)(=O)N2CCC(C(=O)NCc3cccnc3)CC2)c1 | 11.9
87 | CCOC(=O)c1ccc(NC2=CC(=O)C(=O)c3ccccc32)cc1 | 8
88 | CCCS(=O)(=O)N1CCC(C(=O)NC2CCCCC2C)CC1 (stereo not drawn) | 19.7
89 | O=S(=O)(Nc1nc2ccccc2nc1Nc1ccc2c(c1)OCO2)c1ccc(F)cc1 | 20.2
90 | Cc1ccc(S(=O)(=O)N/N=C\c2cc3c(cc2Br)OCO3)cc1 | 2.42

Reference: article PMC4336329 (PLoS ONE, 2015)
